Data on nine molecules can be found in patent US20250179172A1 (HAINAN SIMCERE ZAIMING PHARMACEUTICAL, published 2025).

Assay [1] has as its target T1, murine CD5-His (Sino Biologicals, Cat. No. 50403-M08H) (murine, UniProt P13379 24-371).
T1 construct: also called murine CD5 protein; not shown: His tag
T1 sequence (looked up): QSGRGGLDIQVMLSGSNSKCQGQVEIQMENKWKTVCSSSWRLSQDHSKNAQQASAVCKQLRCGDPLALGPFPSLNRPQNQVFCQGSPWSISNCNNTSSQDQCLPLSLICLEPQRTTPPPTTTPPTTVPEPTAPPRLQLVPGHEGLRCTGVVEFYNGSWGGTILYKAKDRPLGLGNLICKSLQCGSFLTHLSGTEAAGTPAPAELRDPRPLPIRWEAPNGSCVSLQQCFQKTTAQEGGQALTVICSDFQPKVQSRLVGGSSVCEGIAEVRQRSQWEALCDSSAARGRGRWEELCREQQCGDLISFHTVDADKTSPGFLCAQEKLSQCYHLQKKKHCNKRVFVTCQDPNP
Put plainly: ELISA on murine CD5-His, antibody '0.000' nM as printed. On the procedure: (§1) The binding activity of the H65 antibody prepared above with human CD5 protein was subjected to ELISA assay. A purchased commercial antigen (human CD5-His) was diluted with PBS to obtain a final concentration of 2 μg/mL, and then added to a 96-well ELISA plate with 100 µL/well. The plate was sealed with a plastic film and incubated at 4° C. over the night, washed twice with PBS in the next day, added with a blocking solution [PBS+2% (w/w) BSA] and blocked at room temperature for 2 h. The blocking solution was drained out, and 100 nM of the H65 antibody or negative control antibody hIgG1 after gradient dilution was added, namely, the obtained product was the antibody Anti-HEL-hIgG1 against hen egg lysozyme (purchased from Biointron, Cat. No. B117901) with 50 μl per well. After incubation for 2 h at 37° C., the plate was washed for 3 times with PBS. A secondary antibody labeled with HRP (horseradish peroxidase) (A0170, purchased from Sigma) was added. After incubation for 2 h at 37° C., the plate was washed for 5 times with PBS. A TMB substrate was added with 50 μL/well and incubated at room temperature for 30 min, then a stop solution (1.0 N HCl) was added with 50 μL/well.
(§2) To assay the species cross-activity of the VHH-hFc, ELISA plates were coated with commercial murine CD5-His (CD5 (Sino Biologicals, Cat. No. 50403-M08H)), and ELISA assays were performed according to the method described in Example 2.2. […] The negative control is hIgG1 and NB145 serves as the positive control (NB145 has been verified to be bound to murine CD5); data in the table are values of OD_{450 nm}.

Assay [2] has as its target T1, murine CD5-His (Sino Biologicals, Cat. …). Put plainly: ELISA on murine CD5-His, antibody 1.00 nM. The method, then:
as §1, §2

The target is the same in assay [3]. As to the kind of experiment: ELISA on coated murine CD5-His. On the procedure:
as §1, §2
In general terms: ELISA stands for enzyme-linked immunosorbent assay.

Assay [4] has the same target. As to the kind of experiment: ELISA on murine CD5-His, antibody 0.01 nM. On the procedure:
as §1, §2

For assay [5] the target is unchanged. As to the kind of experiment: ELISA on murine CD5-His, antibody 0.10 nM. The method, then: as §1, §2
For assay [6] the target is unchanged. As to the kind of experiment: ELISA on murine CD5-His, antibody 100.00 nM. The method, then: as §1, §2
Assay [7] shares this target. As to the kind of experiment: ELISA on murine CD5-His, antibody 10.00 nM. The method, then:
as §1, §2

Assay [8] addresses T2, human CD5 (Arg25-Pro372)-His protein (Acro, Cat. No. CD5-H52H5) (human, UniProt P06127 25-372).
T2 construct: range 25-372; also called human CD5-His; hCD5-His; not shown: His tag
T2 sequence (looked up): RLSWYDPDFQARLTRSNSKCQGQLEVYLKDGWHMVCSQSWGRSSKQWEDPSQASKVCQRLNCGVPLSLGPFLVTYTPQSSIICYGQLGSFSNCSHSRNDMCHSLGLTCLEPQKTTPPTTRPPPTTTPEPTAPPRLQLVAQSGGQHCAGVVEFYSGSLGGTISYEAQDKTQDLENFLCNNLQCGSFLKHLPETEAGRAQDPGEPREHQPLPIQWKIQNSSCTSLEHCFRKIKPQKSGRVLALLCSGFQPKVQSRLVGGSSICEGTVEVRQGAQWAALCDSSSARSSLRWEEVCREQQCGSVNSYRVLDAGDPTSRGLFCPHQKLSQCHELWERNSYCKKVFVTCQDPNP
As to the kind of experiment: ELISA, antibody coated at 2 µg/mL, human CD5-his titrated from 30 µg/mL; the EC80 is a concentration of CD5-his. On the procedure:
VHH-hFc was subjected to epitope classification with competitive ELISA. ELISA plates were coated with 2 μg/mL antibodies according to the method described in Example 4.1; the human CD5-his protein was subjected to a gradient dilution from 30 μg/mL, and EC₈₀ values (Table 13) were calculated and applied to the next step of epitope analysis. ELISA plates were coated with 2 μg/mL antibodies; after 25 μg/mL of antibodies to be tested were added, a hCD5-his protein having a EC₈₀ concentration corresponding to each of the antibodies to be tested was then added for incubation for 2 h; the plates were washed for 5 times with PBS and HRP-labeled anti-His antibodies (GenScript, Cat. No. A00612) were added for assay. The coated antibody may bind to the antibody-to be tested-hCD5-his antigen complex in the solution if no competitive relation exists between the coated antibody and the antibody-to be tested in the solution. Moreover, OD_{450 nm} absorbance was detected and an inhibition ratio between each pair of antibodies was calculated according to the OD_{450 nm} absorbance (FIGS. 13A-3B).

B1: S005-NB144-3 VHH-hFc (Fc fusion)
chain: QLQLVESGGGLVQPGGSLRLSCAASGFTFSSYAMSWYRQAPGKERELVAAITSAGGSTTYADSVKDRFTISRDNAKNTVSLQMNSLKPEDTAVYYCNAYCTGYVCHEGGYDYWGQGTQVTVSS[human IgG1 Fc with changes not printed]
notes: VHH variable region recombined into vector BI3.4-huIgG1 with signal peptide and human IgG1 Fc; no linker between VHH and Fc is stated
In the case of B1, the OD450 in assay [1] turned out to be 0.11 OD450; in assay [2], 0.11 OD450; in assay [4], 0.09 OD450; in assay [5], 0.1 OD450; in assay [6], 0.11 OD450; in assay [7] it was 0.1 OD450. The binding result in assay [3] is “no binding (tested: 100 nM)”. Further, the concentration for an effect of 80% (EC80) (commonly the concentration needed for an effect of 80%) in assay [8] came to 0.15 µg/mL.

B2: S005-NB145-22 VHH-hFc (Fc fusion)
chain: QVQLVESGGGLVQAGGSLRLSCAVSGRTLSTVVVGWFRQTPGREREFVAVSRSGGATGYADSVKDRFTISRDNAKNTVALQMNSLKPEDTAVYYCAGRGSGLYGSSWYNQIQEYDGWGQGTQVTVSS[human IgG1 Fc with changes not printed]
notes: VHH fused to human IgG1 Fc; no linker stated
With B2, the OD450 in assay [1] was found to be 0.09 OD450; in assay [2], 0.09 OD450; in assay [4] it was 0.09 OD450; in assay [5], 0.09 OD450; in assay [6], 0.11 OD450; in assay [7], 0.11 OD450. Moreover, the binding result in assay [3] was “no binding (tested: 100 nM)”. The same molecule returned an EC80 in assay [8] of 0.06 µg/mL.

B3: H65 scFv-hFc (Fc fusion)
chain: NIQLVQSGPELKKPGETVKISCKASGYTFTNYGMNWVKQAPGKGLRWMGWINTHTGEPTYADDFKGRFAFSLETSASTAYLQINNLKNEDTATYFCTRRGYDWYFDVWGAGTTVTVSSGGGGSGGGGSGGGGSDIKMTQSPSSMYASLGERVTITCKASQDINSYLSWFHHKPGKSPKTLIYRANRLVDGVPSRFSGSGSGQDYSLTISSLDYEDMGIYYCQQYDESPWTFGGGTKLEMK[human IgG1 Fc with changes not printed]
notes: also called H65 antibody
In turn, B3 displayed an EC80 in assay [8] of 0.25 µg/mL.

B4: S005-NB144-73 VHH-hFc (Fc fusion)
chain: EVQVVESGGGLVQAGGSLRLSCAASGDTICISAMYWYRQAPGKAREMVAAITSGGSTYYEDSVMGRFTIFRENAKNTVYLQMNSLKPEDTAVYYCNADIAGHNCSGYLKEYWGQGTQVTVSA[human IgG1 Fc with changes not printed]
notes: VHH fused to human IgG1 Fc; no linker stated; also called S002-NB144-73
On to B4, for which the OD450 in assay [1] came to 0.1 OD450; in assay [2] it was 0.1 OD450; in assay [4] it was 0.09 OD450; in assay [5] it was 0.1 OD450; in assay [6], 0.11 OD450; in assay [7], 0.1 OD450. Also, the binding result in assay [3] is recorded as “no binding (tested: 100 nM)”. Moreover, the 80% effect concentration (EC80) in assay [8] was 0.02 µg/mL.

B5: S005-NB144-4 VHH-hFc (Fc fusion)
chain: EVQVVESGGGLVQAGGSLRLSCAASGSIFSINAMGWYRQAPGKEREVVAAISNGGNTYYEDSVMGRFTISRDNAKGTLYLQMNGLKPEDTAVYYCNADTVVGGGLLTEVWGQGTLVTVSS[human IgG1 Fc with changes not printed]
notes: as for B2
Consider B5, for which the OD450 worked out at 0.08 OD450 in assay [1]; 0.08 OD450 in assay [2]; 0.08 OD450 in assay [4]; 0.09 OD450 in assay [5]; 0.11 OD450 in assay [6]; 0.09 OD450 in assay [7]. Further, the binding result in assay [3] is reported as “no binding (tested: 100 nM)”. The same molecule yielded an EC80 in assay [8] of 0.1 µg/mL.

B6: S005-NB145-3 VHH-hFc (Fc fusion)
chain: QVQLVESGGGLVQPGGSLRLSCAASGFSLDYYAIGWFRQAPGKEREGVSYISPSDGRTYYADSVKGRFTISRDNAKNTVYLQMNSLKPEDTAVYYCATDWGSTSFDYGLKLSPTQYGYWGQGTQVTVSS[human IgG1 Fc with changes not printed]
notes: as for B2
On to B6, for which the OD450 in assay [1] was 0.09 OD450; in assay [2] it was 0.08 OD450; in assay [4], 0.09 OD450; in assay [5] it was 0.09 OD450; in assay [6], 0.11 OD450; in assay [7], 0.09 OD450. For the same molecule, in assay [3], the binding result is recorded as “no binding (tested: 100 nM)”. In addition, it took 0.07 µg/mL to reach the 80% level in assay [8] (EC80).

B7: S005-NB145-92 VHH-hFc (Fc fusion)
chain: EVQLVESGGGLVQPGGSLRLSCAASGFSLDYYAIGWFRQAPGKEREGVSYISASDGSTYYADSVKGRFTISRDNAKNTVYLQMNSLKPEDTAVYYCATDWGSGSFNYGLRLSPTQYDYWGQGTQVTVSS[human IgG1 Fc with changes not printed]
notes: as for B2
In the case of B7, the OD450 in assay [1] came to 0.12 OD450; in assay [2], 0.11 OD450; in assay [4] it was 0.11 OD450; in assay [5], 0.11 OD450; in assay [6], 0.12 OD450; in assay [7], 0.11 OD450. In addition, the binding result in assay [3] is on record as “no binding (tested: 100 nM)”. For the same molecule, the 80% effect level in assay [8] (EC80) was put at 0.23 µg/mL.

B8: S005-NB144-43 VHH-hFc (Fc fusion)
chain: QVQLVESGGGLVQPGGSLRLSCAASGFTWDYYAIGWFRQAPGKEREGVSCIDSSGGSINYLDSVKGRFTVSRDNAKNTVYLQMDSLKPEDTAIYYCAASSYWDCAVPDTGSPKTGHLESYFGSWGQGTQVIVSS[human IgG1 Fc with changes not printed]
notes: VHH fused to human IgG1 Fc; no linker stated; also called S002-NB144-43
As to B8, the OD450 is 0.1 OD450 in assay [1]; 0.11 OD450 in assay [2]; 0.09 OD450 in assay [4]; 0.1 OD450 in assay [5]; 0.11 OD450 in assay [6]; 0.1 OD450 in assay [7]. In assay [3], the binding result was “no binding (tested: 100 nM)”. Besides, the EC80 in assay [8] was 0.03 µg/mL.

B9: S005-NB145-74 VHH-hFc (Fc fusion)
chain: EVQLVESGGGLVQAGGSLRLSCAASESTFSITAMGWYRQAPGKQRELVAAITSPGGSTNYADSVKGRFTISRDNAKNTMLLQMNSLKPEDTAVYYCNADINHGSGYYTVSWGQGTQVTVSS[human IgG1 Fc with changes not printed]
notes: as for B2
For the molecule B9, the OD450 in assay [1] was 0.13 OD450; in assay [2] it was 0.12 OD450; in assay [4], 0.13 OD450; in assay [5], 0.12 OD450; in assay [6], 0.12 OD450; in assay [7], 0.12 OD450. Also, in assay [3], the binding result is “no binding (tested: 100 nM)”. The same molecule showed an EC80 in assay [8] of 0.59 µg/mL.
